Reference: the supplement of paper PMC12632987
Over roughly 4,500 sequences, “median log2 fold change of GCK-ALFA target abundance (FLAG IP / Myc IP barcode read proportion)” has its median near 0.078; the lowest 2% begin near -0.6. Some of the results follow.

B1: GBRAP_52_5975 (protein)
chain: MREEMRRLAEEAVALMLAGDREGARALLEEIAETKTEEEITLFMEELAELAKTATPEERDAIVEVALLAEDIWLEAGFDEALADSNVARVAAAAYAAEQA
B2: GBRAP_160_4006 (protein)
chain: SEEAEKLIKEIKEIFEELKKDIEGLTPEERLTLAKGYAGEILQLAESSKVISDEAVDKIAEILDEFLEELEKNKNAPLEYWKKLIEETLKKIEEVIKEDS
B3: GBRAP_43_5757 (protein)
chain: SKELVEGALDFALLVAEDPNVSEETKVKAIIAALRLAADEGYLDKELLKKVIEAAAKNLSAESLKKIREEAERLAKEHPELAEKFKEAAELLEKAIKEKE
B4: GBRAP_139_3704 (protein)
chain: SALDEVLATARALTENMATDKEASLAAIVALIASLDEETAEAALRAIGEVLATFPLDEAEAYADELLERIEAEIDNEDKVDIAEAVLNGALARKAAAEEA
B5: GBRAP_139_3718 (protein)
chain: SAAEEKIEKAKEIVEKYKDDLEKLAKELAKLISEVDGETALEIVRAAAEELKDWSWEEWEEFIELLEKELKELGFDEDDVLAIKGEFEAVMAKHLMAKEA
B6: GBRAP_184_5143 (protein)
chain: TVLRVFIEAETVEEALEKAEKAFKEAKAKGAKLNLFIELKDATVEEVEELARRIRELVEEYGLTDANVTLVVEADEEEADEFIDVADRHGIRLVVALEEE
B7: GBRAP_78_6679 (protein)
chain: EVEEELEKAIEELNKAASLLSKLKTEEALDILGEVIDAAATAEEAYFGEADLKELEEALEKVKKALERVKKIDTPEAKEVAKELEEAAKHLEKAIKLLKE
B8: GBRAP_172_5002 (protein)
chain: GVTLVELDLRGLSREEAVARARAAVEAAAAAHDADLVVAIAADTQETVDAVTAAVRETAAALGRRVTVVADAVTTEAGIARIRAAARAEAIDLAYEQEEE
B9: GBRAP_74_6562 (protein)
chain: SEEMIKKIKEVAKTKSLKEFSEFILENIDELDEEALLVAFKELLAKLEEEKDSVTPEELEIVSEAAAALADKAFTSEASEETLKAAAALLTAVVELEKKA
B10: GBRAP_78_6736 (protein)
chain: EIEELIDKALEELNRAARLAQQFPLEEQTELLDLIIDASTLLEEAEEEGFDLKLLEEALKKLKEALKLAKKLKTPLAEKLAKELEEAIKLVEKAIKLVKE
B11: GBRAP_9_7132 (protein)
chain: REELVEKMAEVVLDMIEDIAEAVPEVSEELKEKFKERVKKLKEELLKDKSATKEEIKERFIKLVEEIKEEVKKIVSPELAKIVDAIALTAIEEIEEIAEE
B12: GBRAP_9_7166 (protein)
chain: SKEKKEKILKIVKDALKEIIELVPEEVKPLAEKLAKEALKKLEKAVKDENTTVEEFAKKAKEELKEVAEELKKKVDPETAKQIEAVVLTAEEEIEEIVEE
B13: GBRAP_160_4343 (protein)
chain: SEEKEKLLKFVDEEFEETKELIEGESIEQRKILISGMFGEILMELSESPIISDELEDEVKEIEDELLDYLDENPDLSEEEIKELIEEAREKVKEAIEKYT
B14: GBRAP_96_7096 (protein)
chain: MLEEAEALVRELIAALDTDPERARALAERLLEFPVEVVTEAIVRVVKDPADAAKLAELLLELGDEKAEEVLLEAAEKAPGDISKAIIDAMQAYEEAKEAA
B15: GBRAP_9_7126 (protein)
chain: KKELIEKLKEVVLDMIEEISEVVPELTEEQKEEFKEKVEELEEYALEDESLTPEEIKELFLELIEEIEEDVKEIVDEELKKLVEAIALTAEEEIEEIVEE
B16: GBRAP_14_3790 (protein)
chain: MEEIKKILEEAIKEILELIADLPPDKREALRKALEAIAEKTLETIKKTGDLDAALDAMLAEAVAATEAILADLPPETRAEAVAIVRTELSNAEVEIDEAA
B17: GBRAP_45_5808 (protein)
chain: SAEHEAALAAALAALERAIAELERLAEEDPERWAPLLARTRALLARLREHRDDAEALEALAREVDELLKEALADPAATGELLDALLEAGNHIREAAELLK
B18: GBRAP_95_7037 (protein)
chain: DDDRLALESAIEVAITLADLGQAEGAARAALEARALLEEGGVIPIDAELAAELIRVIEEVLVDVLPAADVAALLEAIRAAAEDPEVRARADAALAAVRAR
B19: GBRAP_11_2765 (protein)
chain: MKEKKKEIAEKAKELAELLQKILKEGVDDEELLKKAEEQLKELTELVEKYGDEAQKKLAEILKEELEEAKKDPKNREQYLQNAKTTADVLEGDFLLEAEE
B20: GBRAP_83_6890 (protein)
chain: AEEITVGAAADHVAEAVEAAIDLATEEGYDVTLDVEVTPESVPALEAGLDRAAAAGVKVDLEVTVVAATEAEAEATAARIRAHAEASGAASSVEVTTEVR
B21: GBRAP_52_5884 (protein)
chain: SLEEAIELLKKMIKAVAEGKKEEAEKIAKEIVEKFDDETIIEAVEILAKEIKEKSLEEAEAFYEAMELLSKVLIEMGGDENIASYIEAIAGAALYEVEQK
B22: GBRAP_160_4205 (protein)
chain: SEKIEEIIKSLREETEEVIAALDEVSVEEAAVFADVEYGEVLMEAVELGEENEEIEDIIAKAADEVVAYLKAAADAPVEELKARIREITEKAIEEIKKAG
B23: GBRAP_125_3141 (protein)
chain: MKEALIELAEALAEALGFSEEEIAEIRRLAEASDPAQMIVAILLAAGFEELAELAEKVLPKLTEEEIEELTELAKSMKDKSKEELEKALLEKLKELEKKL
B24: GBRAP_128_3483 (protein)
chain: SVEEAVEKVKELMEKIKESSLEEVEEISREIVELLGSLNDEEAEAAAEVIKEMLPELSAEKLEIIADVLRENRGKLDPYKANLANDIAVEALNEALEKEE
B25: GBRAP_9_7119 (protein)
chain: LEELIEKLKEVVEDAIEDMSLAIPRISEEMKEKFLKRVRELAEELKKDKTKTPEEIKERFKELLREILEEVKKIVDEEEAKIAEAIRLTAEVEIDEIVEE
B26: GBRAP_166_4934 (protein)
chain: NLEEIIKETKEKVVELAKEAAELDREGVIEKAIEIRDLLEEAKKAGASKEELKEILLEAIKTLADNPELARELLRLIEAATDMDEELIDVIDEVRAEFEA
B27: GBRAP_53_6416 (protein)
chain: AAEKIEKLKEEIRALAKAAAAADAATRAKLTKEIAAKLAELKAAGMPDEELTALAKEVAKLLKEAGAPASDLVTLANALAALGLEEGTAEVAELAVEELE
B28: GBRAP_128_3590 (protein)
chain: SVEAVRAETRALLEAMKTADEAERRALAEELARRFLTLTPEEREAMAEEIEERLPELSEEDLEILADAFRAARPLADPETANLLADIEVAALNEAEEKSE
B29: GBRAP_128_3531 (protein)
chain: SVEEAKAYAKEVVEKIKASDVETAAKITAEFLEKLKTWTDEEVEAAVEVLEERAPELTAEKLETVADVIRKNRGKFTPEKQNHLAGLEVELLNEAEEKEE

Molecular target: GABARAP, O95166
Sequence (O95166 whole entry, the tested form may be a part): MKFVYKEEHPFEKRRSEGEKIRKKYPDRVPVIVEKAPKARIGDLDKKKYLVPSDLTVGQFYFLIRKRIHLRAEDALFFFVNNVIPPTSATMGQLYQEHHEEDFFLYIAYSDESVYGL
Assay: median log2 fold change of GCK-ALFA target abundance (FLAG IP / Myc IP barcode read proportion) (log2 ratio); each designed protein is fused to an ALFA-tag nanobody in HEK293 cells to bring the named protein to FLAG-tagged glucokinase (GCK); Myc marks an untargeted standard; higher = target protein stabilised (more abundant)
Details: target protein: 3xFLAG-MCP-GCK-ALFA reporter; HEK293 landing pad (RPLP)
Summary of the method: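 An ALFA-nanobody-fused binder library was recombined into HEK293 landing-pad cells and induced with 2 μg mL^−1 doxycycline. Cells were transfected with a plasmid expressing a FLAG-tagged target and a Myc-tagged standard. After 48 h, lysates underwent anti-FLAG and anti-Myc immunoprecipitation, and circular RNA barcodes were reverse transcribed, amplified and sequenced. Target abundance is the per-binder median log2 ratio of FLAG to Myc barcode read proportions. Barcodes needed ≥10^−7 proportion in both replicates, binders ≥3 barcodes per replicate, and a 10^−6 pseudocount was added; the two replicates were pooled.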

Row | Binder | median log2 fold change
1 | B1 | 0.107
2 | B2 | -0.00151
3 | B3 | 0.404
4 | B4 | 0.0396
5 | B5 | 0.0839
6 | B6 | 0.129
7 | B7 | 0.3
8 | B8 | 0.155
9 | B9 | 0.0424
10 | B10 | -0.0442
11 | B11 | -0.0475
12 | B12 | 0.398
13 | B13 | 0.0937
14 | B14 | 0.123
15 | B15 | -0.561
16 | B16 | 0.2
17 | B17 | 0.273
18 | B18 | 0.0452
19 | B19 | 0.205
20 | B20 | 0.0697
21 | B21 | -0.0634
22 | B22 | -0.283
23 | B23 | 0.154
24 | B24 | 0.173
25 | B25 | 0.152
26 | B26 | 0.354
27 | B27 | 0.279
28 | B28 | 0.0581
29 | B29 | -0.0213
